Reference: PMC4336329 (PLoS ONE, 2015)
Screen size: about 310,000 compounds; about 2,200 (0.71%) showed an effect of 50% or more. The effect is printed as a negative number. This is one part of the list.

Biological target: human ether-à-go-go-related gene (hERG) potassium channel (human, UniProt Q12809)
Test: primary screen, population patch clamp on CHO cells stably expressing hERG

Sequence of human ether-à-go-go-related gene (hERG) potassium channel (Q12809 whole entry, looked up): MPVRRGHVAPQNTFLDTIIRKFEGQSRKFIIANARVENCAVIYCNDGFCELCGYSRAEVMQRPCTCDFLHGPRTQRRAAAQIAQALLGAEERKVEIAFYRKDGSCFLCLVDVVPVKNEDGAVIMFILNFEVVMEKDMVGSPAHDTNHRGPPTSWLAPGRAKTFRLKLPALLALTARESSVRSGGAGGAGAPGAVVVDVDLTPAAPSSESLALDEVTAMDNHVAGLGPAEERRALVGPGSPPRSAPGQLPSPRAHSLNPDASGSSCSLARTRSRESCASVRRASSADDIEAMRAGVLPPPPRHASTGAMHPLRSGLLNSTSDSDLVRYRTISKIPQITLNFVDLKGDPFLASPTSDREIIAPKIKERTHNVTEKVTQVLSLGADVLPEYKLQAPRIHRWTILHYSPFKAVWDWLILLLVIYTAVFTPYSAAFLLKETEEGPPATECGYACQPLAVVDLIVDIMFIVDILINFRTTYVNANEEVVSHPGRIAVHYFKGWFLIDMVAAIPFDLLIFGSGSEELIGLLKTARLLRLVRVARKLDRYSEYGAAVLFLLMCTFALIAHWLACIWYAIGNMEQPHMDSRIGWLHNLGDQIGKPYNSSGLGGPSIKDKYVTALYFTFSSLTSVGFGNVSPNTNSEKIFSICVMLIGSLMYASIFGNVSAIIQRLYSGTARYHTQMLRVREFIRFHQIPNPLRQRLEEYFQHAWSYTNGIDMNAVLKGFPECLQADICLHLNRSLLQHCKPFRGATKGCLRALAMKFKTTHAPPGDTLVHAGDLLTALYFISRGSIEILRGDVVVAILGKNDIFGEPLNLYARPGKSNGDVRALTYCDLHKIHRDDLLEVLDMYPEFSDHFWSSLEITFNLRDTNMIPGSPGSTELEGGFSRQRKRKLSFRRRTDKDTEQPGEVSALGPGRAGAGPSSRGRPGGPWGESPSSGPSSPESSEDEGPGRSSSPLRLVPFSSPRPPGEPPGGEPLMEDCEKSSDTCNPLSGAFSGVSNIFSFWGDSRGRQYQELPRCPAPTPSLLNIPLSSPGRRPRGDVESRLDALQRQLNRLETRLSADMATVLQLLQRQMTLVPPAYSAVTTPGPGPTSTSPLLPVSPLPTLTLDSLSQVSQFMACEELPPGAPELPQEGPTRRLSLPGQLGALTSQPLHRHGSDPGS

Compound	hERG current change (%, negative = inhibition) at 1uM [%]
C=CCN1CCCC1CNC(=O)c1cc2[nH]nnc2cc1OC.Cl (stereo not shown)	11.2
CC(C)(C)c1ccc(C(=O)NCc2ccc(Cl)cc2)cc1	14.6
CCC(C)NC(=O)Cc1c(OC)ccc2cc(Br)ccc12 (stereo not shown)	7.45
O=C(NCc1cccnc1)c1ccccc1-c1nc(-c2ccccc2)no1	-3.2
CC1CC(C)CN(CCCNC(=O)c2csc3c2CCCC3)C1 (stereo not shown)	-39
Cc1c(C(=O)N(C)CC(=O)Nc2cccc(F)c2)oc2c(Cl)cccc12	1.41
Cc1cccn2c(=O)c(C=O)c(N3CCN(C)CC3)nc12	5.95
CCn1c2ccccc2c2nnc(SCc3ccc(C(=O)OC)o3)nc21	6.58
CNC(=O)c1ccc(-c2nc(-c3ccccc3)cs2)cc1	15.1
O=C(c1cc2c(ccc3ccccc32)oc1=O)N1CCCC1	18.2
CCn1ccc(C(=O)Nc2ccc(S(=O)(=O)Nc3ccccc3OC)cc2)n1	-7.08
COc1ccc(N2CCN(C(=O)c3ccc4c(=O)n(Cc5ccc6c(c5)OCO6)c(=O)[nH]c4c3)CC2)cc1	25
COc1ccc(N(CC(=O)NCCc2ccc(Cl)cc2)S(=O)(=O)c2c(C)[nH]c(=O)[nH]c2=O)cc1	-0.561
C/C(=N\NC1=NCCN1)c1ccc(Cl)cc1	-1.91
COc1ccc(NC(=O)CCc2nc(-c3ccc(C)cc3)no2)cc1Cl	15.9
COc1cc(NC(=O)C2C3C=CC(C3)C2C(=O)O)c(OC)cc1Cl (stereo not shown)	15.1
CCN1CNC(=S)N(C(C)c2ccccc2)C1 (stereo not shown)	1.75
CC1CCCCN1CCCNC(=O)C1CCCN(c2ncnc3c2nc2n3CCCCC2)C1 (stereo not shown)	13.7
O=C1C=C2C=C[C@@H]3CC2(O1)[C@H]1CCCCN31	5.28
COc1ccc([C@H]2CC(=O)C=C(c3ccc(CNC(=O)OC(C)(C)C)cc3)C2)cc1	7.81

Compound	hERG current change (%, negative = inhibition) at 1uM [%]
CC(C)CC(=O)NC(=S)Nc1ccc(S(=O)(=O)N2CCN(C)CC2)cc1	16
CCOc1ccc(C(=O)Nc2ccc(N3CCN(C)CC3)cc2)cc1Br	1.4
Cc1ccc(C)c(-n2ccnc2SCC(=O)Nc2cccc(S(=O)(=O)NC3=NCCC3)c2)c1	-9.61
COC(=O)c1ccccc1-n1c(C)nc(=O)c(-c2ccccc2)c1C	11.1
Cc1sc(NC(=O)CN(Cc2ccc(F)cc2)C(=O)C(C)(C)C)c(C(N)=O)c1C	2.43
CCOC(=O)CSc1ccc2nnc(CCNS(=O)(=O)c3ccc(C)cc3)n2n1	8.85
CCN1CN=C(NS(=O)(=O)c2ccc(C)cc2)NC1	5.8
CCOC(=O)c1oc2ccccc2c1COC(=O)CNC(=O)c1ccccc1OC	-0.254
Cc1nc(=O)c(-c2ccccc2)c(C)n1-c1ccc(O)cc1	6.86
CC(C)C[C@H](NC(=O)c1nc[nH]c1C(=O)N1CC[NH2+]CC1)C(=O)OCc1ccccc1.[Cl-]	13.4
Cn1c(=O)c2c(nc(CN3CCN(c4ccccc4)CC3)n2CCc2ccccc2)n(C)c1=O	0.316
CC(C)Cc1cc(C(=O)N2CCCC(C(=O)c3cc(F)ccc3F)C2)n(C)n1 (stereo not shown)	12.4
O=C(Nc1cccnc1)C1COc2ccccc2O1 (stereo not shown)	9.49
CC(=O)Nc1ccc(OC(=O)c2ccc(Cl)cc2)cc1	19.1
CCOC(=O)c1cnc2c(ccc3ccccc32)c1NCCN(C)C	6.07
O=C(Nc1ccccn1)C1CCN(C(=O)Nc2ccccc2)CC1	12.7
O=C(CSc1nc2ccccc2c(=O)n1CC1CCCO1)Nc1ccccc1Cl (stereo not shown)	10.9
COC(=O)c1ccccc1NC(=O)CSc1nnnn1C	2.12
COc1ccc(OC)c(C(=O)COC(=O)c2cccnc2Cl)c1	12
COc1nc(Nc2ccc(C(C)=O)cc2)nc(OC)n1	6.11

Compound	hERG current change (%, negative = inhibition) at 1uM [%]
CCOc1ccc(S(=O)(=O)Nc2ccc(C(=O)NCC(C)(C)N3CCOCC3)cc2)cc1	10.7
CCC(C)c1ccccc1NC(=S)Nc1cccnc1 (stereo not shown)	16.6
COc1cc(CN2CCNC(=O)C2CC(=O)O)cc(OC)c1 (stereo not shown)	9.16
NC(=O)c1cccnc1Sc1ccc(Cl)cc1	-1.09
Cc1cccc(OCC(=O)Nc2ccc(N3CCN(S(C)(=O)=O)CC3)cc2)c1C	3.69
CCC(C(=O)Nc1ccc(S(=O)(=O)N(C)C2CCN(C)CC2)cc1)c1ccccc1 (stereo not shown)	7.94
Nc1nc(-c2cccc(NS(=O)(=O)c3ccccc3)c2)cs1	13.6
O=C(O)C1C2C=CC3(CN(Cc4ccco4)C(=O)C13)O2 (stereo not shown)	9.03
COc1ccc(C(=O)OCC(=O)Nc2ccc3c(c2)OCCO3)c(OC)c1	10.6
CC(C)N(C(=O)CSc1nn2c(=O)c(C(C)(C)C)nnc2s1)c1ccccc1	5.43
Cc1cc(C(=O)O)sc1C	11.2
CCCCCNc1nc2ccccc2nc1NS(=O)(=O)c1cccs1	4.54
Cc1ccc(CNC(=O)CCSCc2cccc(F)c2)cc1	7.07
Cc1ccc(SCC(=O)NCCSCc2ccccc2)cc1	5.45
O=C(NCc1ccccc1)c1c[nH]c2ccc(F)cc2c1=O	8.61
C=C(C)Cn1c(Sc2nnc(C)s2)nc2c1c(=O)[nH]c(=O)n2C	21.7
O=C1CSC(c2ccc([N+](=O)[O-])cc2)N1c1ccccc1F (stereo not shown)	9.45
O=C(Nc1ccccc1C(=O)NCc1ccc(Cl)cc1)c1ccco1	2.14
